Data on 5 molecules can be found in publication PMC11772845.

The chains behind the UniProt entries cited, without tags or fusion partners.
UniProt P00401: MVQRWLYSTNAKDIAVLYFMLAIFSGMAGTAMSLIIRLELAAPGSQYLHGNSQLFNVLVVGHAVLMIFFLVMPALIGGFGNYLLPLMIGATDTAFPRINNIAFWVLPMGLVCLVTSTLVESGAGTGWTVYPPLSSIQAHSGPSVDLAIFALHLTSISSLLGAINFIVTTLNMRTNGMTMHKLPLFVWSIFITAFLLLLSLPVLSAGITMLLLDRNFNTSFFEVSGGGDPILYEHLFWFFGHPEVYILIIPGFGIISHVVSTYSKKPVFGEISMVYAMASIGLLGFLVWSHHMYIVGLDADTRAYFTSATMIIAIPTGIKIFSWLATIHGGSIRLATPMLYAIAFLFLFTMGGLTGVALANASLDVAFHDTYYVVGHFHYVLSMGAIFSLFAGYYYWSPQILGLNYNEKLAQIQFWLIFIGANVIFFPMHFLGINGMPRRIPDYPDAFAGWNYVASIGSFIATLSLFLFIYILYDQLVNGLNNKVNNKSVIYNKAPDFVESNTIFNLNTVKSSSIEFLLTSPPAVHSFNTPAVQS

These are yes or no findings as the source states them, for the method shown. Binding seen in cells or lysates may run through a third protein. Some entries that bind do so weakly or less than the wild type.

Assay [1] concerns the target T1, Mic60_(ProtA) (S. cerevisiae) (UniProt P36112).
T1 sequence: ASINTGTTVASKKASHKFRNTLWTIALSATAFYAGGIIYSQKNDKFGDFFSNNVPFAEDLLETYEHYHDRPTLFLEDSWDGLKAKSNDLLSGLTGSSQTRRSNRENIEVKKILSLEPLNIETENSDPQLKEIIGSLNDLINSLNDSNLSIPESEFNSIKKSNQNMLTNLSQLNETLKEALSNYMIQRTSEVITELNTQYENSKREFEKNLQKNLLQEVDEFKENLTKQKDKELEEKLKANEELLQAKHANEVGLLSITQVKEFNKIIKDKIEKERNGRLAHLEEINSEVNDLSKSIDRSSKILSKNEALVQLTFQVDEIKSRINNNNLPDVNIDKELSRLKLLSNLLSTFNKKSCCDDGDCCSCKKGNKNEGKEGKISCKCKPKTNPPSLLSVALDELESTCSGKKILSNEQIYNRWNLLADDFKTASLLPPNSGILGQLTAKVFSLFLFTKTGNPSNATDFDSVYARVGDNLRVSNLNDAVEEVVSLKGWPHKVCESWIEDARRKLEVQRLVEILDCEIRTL
Put plainly: co-IP; protein A- or TAP-tagged bait captured on IgG-Sepharose from mitochondria solubilised in 1% digitonin (20 mM Tris-HCl pH 7.4, 50 mM NaCl, 0.1 mM EDTA, 10% glycerol), washed with 0.3% digitonin, eluted with TEV protease at 4 °C; eluates analysed by SDS-PAGE or BN-PAGE and western blot; untagged wild type as control; also done with rho-, mic10Δ (Mic60 bait), mar26Δ, rip1Δ and Mar26-overexpressing mitochondria. (In general: In western blotting, separated proteins are transferred to a membrane and probed.)

Assay [2] deals with T1, Mic60_(ProtA) (S. cerevisiae). Put plainly: co-IP; [^35S]-labelled precursor imported into isolated mitochondria that carry the protein A-tagged bait; then digitonin solubilisation, IgG chromatography, SDS-PAGE (or two-dimensional gel) and autoradiography.
Assay [3] shares this target. Put plainly: condition: only imported into wild-type mitochondria that were mixed with Mic60_(ProtA) mitochondria before lysis (post-lysis control); co-IP; post-lysis control: [^35S]-labelled precursor imported into wild-type mitochondria, which were re-isolated and mixed with untreated Mic60_(ProtA) mitochondria before digitonin solubilisation and IgG chromatography; autoradiography.

Assay [4] has as its target T2, Mic12_(ProtA) (S. cerevisiae) (UniProt P38341).
T2 sequence: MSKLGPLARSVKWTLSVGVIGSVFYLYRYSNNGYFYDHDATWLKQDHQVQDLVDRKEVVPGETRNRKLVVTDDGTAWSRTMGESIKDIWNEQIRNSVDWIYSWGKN
Put plainly: co-IP; as a1, from Mic12_(ProtA)mic60Δ and Mic12_(ProtA)mic10Δ mitochondria; eluates on BN-PAGE and western blot.

As to Cox1 (from UniProt P00401 1-534), the binding entry in assay [1] is given as “binds”.

B1: [^35S]-labeled Cox5a (protein, UniProt P00424 1-153)
chain: MLRNTFTRAGGLSRITSVRFAQTHALSNAAVMDLQSRWENMPSTEQQDIVSKLSERQKLPWAQLTEPEKQAVWYISYGEWGPRRPVLNKGDSSFIAKGVAAGLLFSVGLFAVVRMAGGQDAKTMNKEWQLKSDEYLKSKNANPWGGYSQVQSK
modifications: [^35S]methionine label
With B1, the binding result in assay [2] was “binds”; in assay [3] it was “no binding”.

B2: [^35S]-labeled Qcr8 (protein, UniProt P08525 1-94)
chain: MGPPSGKTYMGWWGHMGGPKQKGITSYAVSPYAQKPLQGIFHNAVFNSFRRFKSQFLYVLIPAGIYWYWWKNGNEYNEFLYSKAGREELERVNV
modifications: [^35S]methionine label
In the case of B2, the values for the binding result in assay [2] and in assay [3] were “binds” and “no binding”, respectively.

B3: Cox4 (protein, UniProt P04037 26-155)
chain: QQKPVVKTAQNLAEVNGPETLIGPGAKEGTVPTDLDQETGLARLELLGKLEGIDVFDTKPLDSSRKGTMKDPIIIESYDDYRYVGCTGSPAGSHTIMWLKPTVNEVARCWECGSVYKLNPVGVPNDDHHH
As for B3, the binding entry in assay [4] is on record as “binds weakly”.

B4: [^35S]-labeled Cox13 (protein, UniProt P32799 1-129)
chain: MFRQCAKRYASSLPPNALKPAFGPPDKVAAQKFKESLMATEKHAKDTSNMWVKISVWVALPAIALTAVNTYFVEKEHAEHREHLKHVPDSEWPRDYEFMNIRSKPFFWGDGDKTLFWNPVVNRHIEHDD
modifications: [^35S]methionine label
With B4, the binding result was “binds” in assay [2] and “no binding” in assay [3].
